According to publication PMC4336329 (PLoS ONE, 2015):
Screen size: about 310,000 compounds; about 2,200 (0.71%) showed an effect of 50% or more. The effect is printed as a negative number. This is one part of the list.

The compounds below were run against human ether-à-go-go-related gene (hERG) potassium channel (human, UniProt Q12809) (assay: primary screen, population patch clamp on CHO cells stably expressing hERG).
Sequence of human ether-à-go-go-related gene (hERG) potassium channel (Q12809 whole entry, looked up): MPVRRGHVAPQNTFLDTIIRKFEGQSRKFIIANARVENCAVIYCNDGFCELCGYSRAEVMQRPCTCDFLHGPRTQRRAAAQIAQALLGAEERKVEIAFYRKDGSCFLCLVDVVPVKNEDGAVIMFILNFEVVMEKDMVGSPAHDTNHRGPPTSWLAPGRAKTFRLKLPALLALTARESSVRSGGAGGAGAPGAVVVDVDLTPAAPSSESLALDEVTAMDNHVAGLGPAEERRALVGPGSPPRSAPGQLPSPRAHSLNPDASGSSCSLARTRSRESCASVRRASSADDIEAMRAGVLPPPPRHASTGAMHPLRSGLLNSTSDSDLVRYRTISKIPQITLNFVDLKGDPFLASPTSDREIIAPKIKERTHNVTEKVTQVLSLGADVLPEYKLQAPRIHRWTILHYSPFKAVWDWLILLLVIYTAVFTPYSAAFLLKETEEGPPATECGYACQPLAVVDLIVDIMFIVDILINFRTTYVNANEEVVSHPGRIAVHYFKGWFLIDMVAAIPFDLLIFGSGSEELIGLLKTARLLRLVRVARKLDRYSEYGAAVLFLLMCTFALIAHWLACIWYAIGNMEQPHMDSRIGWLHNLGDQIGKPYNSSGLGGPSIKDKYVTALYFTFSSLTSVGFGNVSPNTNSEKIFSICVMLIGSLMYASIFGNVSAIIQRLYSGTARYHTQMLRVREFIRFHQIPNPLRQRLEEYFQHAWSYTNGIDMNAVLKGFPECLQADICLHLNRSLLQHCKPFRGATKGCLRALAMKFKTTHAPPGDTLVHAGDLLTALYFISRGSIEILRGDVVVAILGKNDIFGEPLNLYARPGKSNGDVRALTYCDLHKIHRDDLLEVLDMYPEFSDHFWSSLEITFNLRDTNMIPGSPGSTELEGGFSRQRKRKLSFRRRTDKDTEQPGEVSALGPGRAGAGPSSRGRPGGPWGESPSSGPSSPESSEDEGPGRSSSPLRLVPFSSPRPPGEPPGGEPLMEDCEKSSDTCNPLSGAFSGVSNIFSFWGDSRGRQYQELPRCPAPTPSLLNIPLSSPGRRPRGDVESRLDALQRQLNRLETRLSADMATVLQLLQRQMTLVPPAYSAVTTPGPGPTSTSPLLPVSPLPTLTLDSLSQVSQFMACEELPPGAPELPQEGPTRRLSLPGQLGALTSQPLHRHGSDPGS

Row | Structure (SMILES) | hERG current change (%, negative = inhibition) at 1uM [%]
1 | CCCOc1ccc(C(=O)Nc2ccc(CN3CCOCC3)cc2)cc1 | 14.4
2 | O=C(C1=C[C@@H](c2ccccc2)C[C@@H](OCc2ccc(CO)cc2)O1)N1CCOCC1 | 5.09
3 | O=c1/c(=C\c2ccc(F)cc2)sc2n1CCCN=2 | 8.88
4 | COC(=O)c1cc(NC(=O)CC2C(=O)NCCN2C(=O)c2ccc(F)cc2)cc(C(=O)OC)c1 (stereo not shown) | 3.17
5 | O=c1[nH]c(C2CCCN(S(=O)(=O)Cc3ccccc3)C2)nc2c1nnn2Cc1cccc(Cl)c1 (stereo not shown) | 16
6 | O=C(Cn1c(CN2CCCCC2)nc2ccccc2c1=O)NC1CCCCC1 | 11.6
7 | CCOC(=O)C1CCN(C2=NC(=O)/C(=C/c3ccc(O)cc3)S2)CC1 | -17.8
8 | O=C(CNC(=O)c1ccc(Cl)cc1)c1ccc(Br)cc1 | 7.35
9 | CCCCCc1cc(=O)oc2c(C(CCN3CCCCC3)c3ccc(OC)cc3)c(OC)cc(OC)c12 (stereo not shown) | 1.13
10 | Cc1cc(N2CC34C=CC(O3)C(C(=O)O)C4C2=O)no1 (stereo not shown) | 8.44
11 | CC(=O)c1cccc(NC(=O)c2cccc(N3C(=O)c4ccccc4C3=O)c2)c1 | -8.83
12 | CCN(CC)c1ccc(C=C2C(=O)N(C)C(=S)N(C)C2=O)o1 | 8.41
13 | Cc1cccc(CN2C[C@]34CC[C@@H](C[C@@H]3S2(=O)=O)O4)c1 | 9.43
14 | COc1ccc(N2CCN(C(=O)c3[nH]c4ccc(OC)cc4c3C)CC2)cc1 | 7.08
15 | Cn1c(N)c(C(=O)COC(=O)c2cc(C3CC3)nc3ccccc23)c(=O)n(Cc2ccccc2)c1=O | 17.4
16 | O=c1c2ccccc2nc2n1CCC2O (stereo not shown) | 10.1
17 | Cc1cc(C)c(NC(=O)CN(C2CCCCC2)C2CCCCC2)c(C)c1 | 2.14
18 | O=C(NC1CCCCCC1)c1nnc(Cc2ccc(Cl)cc2)o1 | 4.44
19 | COc1ccc(/C=C(/NC(=O)c2ccccc2)C(=O)NC2CCS(=O)(=O)C2)cc1 (stereo not shown) | 7.67
20 | CCC(=O)N1CCN(c2ccc(Cl)cc2NC(=O)c2ccc(N3CCCC3)c([N+](=O)[O-])c2)CC1 | -2.71
21 | Cc1cc(C(=O)COC(=O)C2=COCCO2)c(C)n1-c1cccc(F)c1 | -13.6
22 | CC(=O)c1cccc(S(=O)(=O)N2CCC(c3nc4ccccc4[nH]3)CC2)c1 | -26.6

Row | Structure (SMILES) | hERG current change (%, negative = inhibition) at 1uM [%]
23 | CCC1CCCCN1C(=O)CSc1nnc(-c2ccc(Cl)s2)o1 (stereo not shown) | -5.94
24 | Cc1cc(C)n(C(=O)C(C)N2C(=O)c3ccccc3C2=O)n1 (stereo not shown) | -6.66
25 | COCCCNC(=O)CCc1nc2cccnc2n1Cc1ccc(OC)cc1 | 9.04
26 | COc1cccc(NC(=O)C(=O)NCc2ccncc2)c1 | 5.8
27 | COC(=O)c1cn(-c2ccccc2)c(=O)c2ccccc12 | 15.6
28 | N#Cc1ccc(CSc2nnc(-c3c[nH]c4ccccc34)n2-c2ccccc2)cc1 | 9.98
29 | COc1cccc(C(=O)COC(=O)c2n[nH]c(=O)c3ccccc23)c1 | 11
30 | COc1ccc(-c2cnnn2-c2ccc(N)cc2)cc1OC | -0.309
31 | COc1ccc(/C=N/NC(=O)c2cccc(NC(=O)c3ccccc3Cl)c2)cc1OC | 11.9
32 | CCOC(=O)c1ccc(NC(=O)C2(c3ccc(Cl)cc3)CCCC2)cc1 | 0.764
33 | CCN(Cc1ccccc1)C(=O)CN1C(=O)NC(CC)(c2ccc(F)cc2)C1=O (stereo not shown) | 11.4
34 | O=c1oc2cc([N+](=O)[O-])ccc2nc1/C=C(O)/C=C/c1ccccc1 | 15.5
35 | CC(C)C[C@]1(c2ccccc2)ON(c2ccccc2C(F)(F)F)C1=O | 9.78
36 | O=C(N/N=C\c1cc(Br)cs1)C1COc2ccccc2O1 (stereo not shown) | 15.8
37 | CCOC(=O)C1=C(C)N(C)C(=O)NC1c1cccc([N+](=O)[O-])c1 (stereo not shown) | 3.62
38 | CC(=O)Nc1ccc(NC(=S)Nc2ccc(F)cc2)cc1 | 16.6
39 | Cc1ccc(NC(=O)C(=O)NCc2ccccn2)cc1 | 19.1
40 | O=C(NC1CC1)C1=C[C@H](c2c[nH]c3ccccc23)C[C@H](OCCCCO)O1 | 8.24
41 | CSCCOC(=O)C1=C(C)NC(=O)CC1c1ccccc1Cl (stereo not shown) | -8.29
42 | Cc1ccc(S(=O)(=O)c2cc3c(=O)n4ccccc4nc3n(C)c2=N)cc1 | 6.7
43 | CC(=O)Nc1sc(NC(=O)c2ccc(C)cc2)nc1-c1cccs1 | 12.2
44 | c1ccc(-c2nc3ccccn3c2NCc2ccc3c(c2)OCO3)cc1 | -4.96

Row | Structure (SMILES) | hERG current change (%, negative = inhibition) at 1uM [%]
45 | Cc1cc(C(=O)CSc2nnnn2C)c(C)n1CCc1ccc(Cl)cc1 | 5.51
46 | Cc1cc(C)c2nc(NC(=O)c3ccc([N+](=O)[O-])o3)sc2c1 | 21.1
47 | Cc1c(/C=N/O)c2ccccn2c1C(=O)c1ccc(F)cc1 | 15.8
48 | CCC(=O)N/N=C/c1ccc(-c2ccc(Cl)cc2)o1 | 12.5
49 | Cc1cccc(CSCc2ccc(C(=O)O)o2)c1 | 11
50 | C/C(=N\NC(=O)CNC(=O)C1COc2ccccc2O1)c1ccco1 (stereo not shown) | -1.43
51 | CC(C)(COC(=O)Nc1ccccc1)COC(=O)Nc1ccccc1 | 0.646
52 | Cc1c(N=C2N=C(NC(=O)NC(C)(C)C)c3ccccc32)c(=O)n(-c2ccccc2)n1C | 17.7
53 | COc1ccc(C2CC(=O)C(C=NCCCN3CCOCC3)=C(O)C2)cc1 (stereo not shown) | 19.9
54 | CS(=O)(=O)N1CCC(C(=O)Nc2ccc(F)cc2)CC1 | 12.9
55 | Cc1cc(C)nc(N/N=C/c2cccc([N+](=O)[O-])c2)n1 | 9.55
56 | COc1cccc(C=Nc2ccc(N3CCOCC3)cc2)c1O | 16.3
57 | c1csc(C(c2nnnn2C2CCCC2)N2CCCC3(CCCCC3)C2)c1 (stereo not shown) | 7.12
58 | CCCCCCNS(=O)(=O)c1ccccc1Br | 7.86
59 | N#Cc1ccc(-c2ccc(F)cc2)nc1Oc1ccc(Cl)c(Cl)c1 | 13.2
60 | COc1ccc(N(C)S(=O)(=O)c2cccc(C(=O)NC3CCCCCC3)c2)cc1 | 2.6
61 | O=C(Nc1ccccc1C(=O)O)c1ccc(CN2C(=O)c3ccccc3C2=O)cc1 | 12.7
62 | COc1cccc(-c2csc(N3CCN(C(=S)Nc4ccccc4C)CC3)n2)c1 | 4.05
63 | COC(=O)[C@@H](Cc1ccccc1)NC(=O)NCCc1c[nH]c2ccccc12 | 15.4
64 | CCOc1ccc(NC(=O)C2C(c3ccccc3)C2(Cl)Cl)cc1 (stereo not shown) | 14.8
65 | NS(=O)(=O)c1ccc(NC(=O)COC(=O)c2ccc(Cl)nc2)cc1 | 8
66 | COc1ccc2[nH]c(=O)c(CN(CCO)S(=O)(=O)c3c(C)ccc4nsnc34)cc2c1 | 5.08

Row | Structure (SMILES) | hERG current change (%, negative = inhibition) at 1uM [%]
67 | CCC(C)c1ccc(NC(=O)COC(=O)CCNC(=O)c2ccco2)cc1 (stereo not shown) | 4.32
68 | CC(=O)Nc1ccc(NC(=O)CCN2C(=O)c3ccccc3C2=O)cc1 | 17
69 | COc1ccc(CCNC(=O)Cn2c([N+](=O)[O-])cnc2C)cc1OC | 8.24
70 | Cc1nnc(NC(=O)c2cccc(F)c2)s1 | 5.85
71 | CCOC(=O)c1cccc(NC(=O)CCc2ccccc2)c1 | 2.84
72 | Cc1ccc(NC(=O)CCN2C(=O)c3ccccc3C2=O)cc1 | 13.2
73 | CCn1cc(CN2CCC(n3nccc3NC(=O)c3ccccc3OC)CC2)cn1 | -53.5
74 | Cc1ccc(C(=O)NC(=S)NCCCN2CCOCC2)cc1 | 3.73
75 | O=C(COC(=O)c1cc(=O)[nH]c2ccccc12)Nc1ccc(Cl)cn1 | 12.1
76 | O=C(O)C/C(=C\c1ccc(Cl)cc1)c1nc2ccccc2o1 | 12
77 | N#CCNC(=O)c1nn2c(C(F)(F)F)cc(-c3ccccc3)nc2c1Br | 17.7
78 | O=C(Nc1ccccc1C(=O)N1CCCC1)C1CCN(c2ncccn2)CC1 | -1.05
79 | Cc1nc2c(=O)n(C)c(=O)[nH]c2n1Cc1ccccc1 | 5.17
80 | Cn1c(NC(=O)Cc2cccc3ccccc23)cc(=O)n(C)c1=O | 9.64
81 | S=c1nc(Cc2ccccc2)[nH]c2ccccc12 | 16.9
82 | CCS(=O)(=O)c1ccc(O)c(N2C(=O)C3C4C=CC(C4)C3C2=O)c1 (stereo not shown) | 13.3
83 | CC(C)(C)c1cc[n+](-c2[nH]c(=O)sc2/C=N/NC([S-])=Nc2ccccc2)cc1 | -13.4
84 | CCOC(=O)N1CCN(C(=O)CNS(=O)(=O)c2cccs2)CC1 | -8.19
85 | CC1(c2ccc(OC(F)F)cc2)NC(=O)N(CC(=O)Nc2cccnc2Cl)C1=O (stereo not shown) | -5.83
86 | Cc1c(NC(=O)C(C)OC(=O)/C=C/c2ccc3c(c2)OCO3)c(=O)n(-c2ccccc2)n1C (stereo not shown) | 4.18
87 | Cc1sc2nc(COC(=O)CNC(=O)c3ccc(C(C)(C)C)cc3)[nH]c(=O)c2c1C | 7.78
88 | COc1ccc(NC(=O)c2c(C(F)(F)F)nn(C)c2Cl)cc1 | -1.06
